In test [1] the target is H1 HA stem construct (mini-HA #4900). As to the kind of experiment: mRNA display binding score; higher = more enriched on the antigen. The settings on record: antigen blocked with: nothing. As to the method: (§1)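 A pool of natively paired antibodies, displayed as scFv on mRNA, was selected once on antigen-coated beads and sequenced before and after; two replicates.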
The target of test [2] is H3 HA stem construct (H3ssF). The test is described as above. The settings on record: antigen blocked with: nothing. The method, then:
as §1

The results in this text go back to the supplement of paper PMC11383711.

Some of the results follow. Binding of human antibodies (heavy:light variable regions, tested as scFv in one mRNA-display pool) to influenza hemagglutinin, with or without the stem antibody CR9114 bound first. Score = (mean enrichment − median) / interquartile range of that screen; higher = more enriched, 0 = typical non-binder. Active = above the paper's cut-off per screen: stems 28; unblocked H1 Solomon Islands 5, H1 Michigan 3, H3 5, H5 19, H7 2.85, both B 5; blocked 9, 7, H5 10, H7 10, B Phuket 10, B Lee 11.5. Scores are scaled within each screen and are no affinities; replicates correlate at about 0.6 to 0.9, and antibodies rare in the pool are noisier.

B1: R95-2F01 (protein)
chain 1: QVQLQESGPGLVKPSETLSLTCTVSGGSISSHYWSWIRQPPGKGLEWIGYIYDSGKTNHNPTLKSRVTISADTSKNQFSLKLSSVTAADTAVYYCASARRYCSSTSCYGLEYYFGMDVWGQGTTVTVSS
chain 2: DIVMTQSPLSLPVTPGEPASISCRSSQSLVHSNGHNYLDWYLQKPGQSPQLLIYLSSSRASGVPDRFSGSGSGTDFTLKINRVEAEDVGVYFCMQALQAPYTFGQGTRLEIK
Turning to B1, the “mRNA display binding score” value in test [1] was inactive: -0.0191; in test [2], inactive: -0.47.

B2: 051-10-4G03 (protein)
chain 1: EVQLVESGGGLVQPGRSLRLSCTASGFTFGDYAMSWVRQAPGKGLEWVGFIRSKRYGGTTEYAASVKDRFTISRDDSKSIASLQMSSLKRDDTAVYYCTRDLVGATTFFLYGMDVWGQGTTVTVSS
chain 2: DIQMTQSPSSVSASIGDRVTITCRASQDVSTWLAWYQQKPGKAPKLLIYTASSLQSGVPSRFSGSGSGTDFTLTISSLQPEDFATYYCQQANSFPLTFGGGTKVEIK
Regarding B2, the “mRNA display binding score” value in test [1] is inactive: 0.0141; in test [2], inactive: 0.964.

B3: W85-1E07 (protein)
chain 1: EVQLVESGGGLVQPGGSLRLSCAASGFKVGDNYMSWVRQAPGKGLEWVSIIYGGGRTYYADSVKGRFTLSRDNSKNTLSLQMNSLRGEDTAVYYCARDGVAGGEGAYDIWGQGTMVTVSS
chain 2: DIQMTQSPSSLSASVGDRVIITCRASQPISSYLNWYQQKPGKAPNLVIYSASSLQSGVPSRFSGSGSGTDFTLSISNLQPEDFATYYCQQSYSDPYTCGQGTKLEIK
Consider B3, for which the “mRNA display binding score” value is inactive: -0.832 in test [1] and inactive: 0.407 in test [2].

B4: antibody 3E01 (protein)
chain 1: VQLQESGPGLLKPSETLSLICSVSDYSVTTSTSYWGWIRQTPGKGLEWIGSLSYSGFSYYNPSLRSRVTMSFDSSKKQVSLRLNSVTAADTAVYYCAILYGSIIDYWGPGILVTVSS
chain 2: DIQMTQSPSTLSASVGDRVTITCRASQSIRTWLAWYQQKPGKAPKLLISRASILESGDPSRFSGSGSGTEFTFTISSLQPDDFATYYCQHYNNYWWTFGQGTKVEIK
As for B4, the figures for the “mRNA display binding score” value in test [1] and in test [2] were inactive: -0.638 and inactive: 0.316, respectively.

B5: R95-1H06 (protein)
chain 1: LVQLQESGPGLVKPSETLSLTCTVSGDSFTTYYWSWIRQPPGKGLEWIGYIYTIGRTHYNPALKSRVAISVDTSKNQFSLNLTSVTAADTAVYYCARIRIRGADYPFDHWGQGSLVTVHS
chain 2: SYELTQPPSVSVAPGQTARISCGGDNIGSKNVHWYQQKPGRAPVLVVYDDTDRPSGIPDRFSGSNSGDTATLTITRLEAGDEADYYCHVWDSTGDHQGVFGGGTKLTVL
Regarding B5, the “mRNA display binding score” value was inactive: -0.216 in test [1] and inactive: -0.307 in test [2].

B6: 01.ae.01 (protein)
chain 1: QVQLQQWGAGLLKPSEALSLSCAVYGGSFSDYYWNWIRQPPGKGLEWIGEIDNFGSTKYHPSLKSRVTISVDTSKNQFSLKLTSVTAADTAVYYCARVRRPIVAHYYGLDVWGQGTTVTVSS
chain 2: DIQMTQSPSSLSASIGDRVTITCRASQGISNYLAWYQQRPGKAPKLVIYAASTLQSGVPSRFSGSGSGTYFTLTISSLQPEDFATYYCQQLNTYPRTFGPGTKVDI
On to B6, for which the “mRNA display binding score” value in test [1] was inactive: -0.448; in test [2], inactive: 0.161.

B7: SFV020-5C05 (protein)
chain 1: VQLVESGGGVVQPGRSLRLSCAASGFSFSNYGIHWVRQVPGKGLEWVAVISHAGAYKYYADSVRGRFTISRDNSKNILYLQMNSLRVEDTAVYYCATLGGDIVVVSAERSGYYYGLDVWGQGTTVTVSS
chain 2: DIQMTQSPSTLSASVGDRVTITCRASQSISNRLVWYQQKPGTAPKLLIYQASTLEGEVPSRFSGSGSGTEFTLTITSLQPDDLATYFCQQYNTNSRTFGQGTKVEIK
As for B7, the entries for the “mRNA display binding score” value in test [1] and in test [2] were inactive: 0.378 and inactive: 0.189, respectively.

B8: K77-2H01 (protein)
chain 1: EVQLVQSGAEVKKPGESLKISCEASGDNFSSYWIAWVRQMPGKGLEWMGIIYPGDSDTRYSPPFQGQVTISADKSIRTAYLQWSSLKASDTAMYYCATSMMSFYYDESDAFRWALAAFDIWGHGTPVTVSS
chain 2: EIVLTQSPGTLSLSPGERATLSCRASQSVASSSLAWYQQKPGQAPRLLIYSTSNRATGIPGRFSGSGSGTDFILTVNRLEPEDFAVYYCQHNDSSPAWSFGQGTKVEI
Consider B8, for which the “mRNA display binding score” value was inactive: 0.448 in test [1] and inactive: 0.788 in test [2].

B9: C1-2D03 (protein)
chain 1: VQLVESGGGLVKPGGSLRLSCAASGFTFSNAWMSWVRQAPGKGLEWVGRIQSQHEGGTTDYAAPVKGRFTISRDESKNTLYLQMNSLKTEDTAVYYCTTASNPYNWNGPYFDYWGQGTLVTVSS
chain 2: DIQMTQSPSTLSASVGDRVTITCRASQSIGTWLAWYQQKPGKAPKLLIYKASSLESGVPSRFSGSRSGTEFTLTISSLQPDDFATYYCQQYNVYSPMYTFGQGTKVEIK
As to B9, the “mRNA display binding score” value is inactive: 0.33 in test [1] and inactive: 0.286 in test [2].

B10: antibody 1D05 (protein)
chain 1: VQLLESGGGLVQPGGSLRLSCAASGFAFNTYAMSWVRQAPGKGLEWVSASGGLHGASYYADSVQGRFTIYRGNSKSTLYLQMNYLRAEDTAVYYCATDLDGDEGTWFENWGQGTLVTVSS
chain 2: EIVMTQSPATLSVSPGERATLSCRASQSLSNNLTWYQQKPGQAPRLLIYGASTRATGLPARFSGSGSGTEFTLTISSLQSEDFAVYFCQQYNNWPPTFGQGTKVEIK
Take B10: the “mRNA display binding score” value in test [1] was inactive: 1.05; in test [2], inactive: -0.161.

B11: 042-10-4C06 (protein)
chain 1: EVQLVESGGGLVKPGGSLRLSCEVSGLIFKNAWMTWVRQAPGMGLEWVGRIKSKSEGGTADYGTPVRDRFIISRDDSKNMVYLQMDSLQTEDTAVYYCATIGIDYNSRSGYFSFDYWGQGALVTVSS
chain 2: EIVLTQSPDTLSLSPGERATLFCRASQSVGNSLAWYRQKLGQPPRLLIYDASIRATGIPARFTGSGSGTDFTLTISSLEPEDFAVYYCQQRANWAPFTFGRGTKVEIK
Take B11: the “mRNA display binding score” value is inactive: 0.545 in test [1] and inactive: 2.44 in test [2].

B12: AG2-F02 (protein)
chain 1: VQLVESGGGVVQPGRSLSLSCAASGFTFSNYAMHWVRQAPGKGLEWIFHISYDSSNRYSADSVKGRFTLSRDNSKNTLSLQMDSLKVEDTAVYYCARGEVINGPLYYFDYWGHGTLVTVSS
chain 2: EIVLTQSPATLSLSPGERATLSCRASQSVRYFLAWYQQKPGQAPKLLISDASNRATGIPARFSGSGFGTDFTLTIDNLEPDDSAVYYCQQRSTWAHITFGGGTKVEIK
On to B12, for which the “mRNA display binding score” value in test [1] is inactive: 0.328; in test [2], inactive: -0.601.

B13: W85-1E01 (protein)
chain 1: EVQLVESGGGLVRPGRSLTLSCATSGFTFGDYGLSWVRQAPGKGLEWVGFIRSKPYGATTEYAASVKGRFTISRDDSKSIAYLQMNSLKIEDTAVYFCGRDPHSGSYLDYWGQGTLVTVSS
chain 2: QSALTQPASVSGSPGQSITIFCTGTSSDVGGYNYVSWYQQHPGKAPKVMIYEVNNRPSGVSNRFSGSKSGNTASLTISGLQSEDEADYYCSSYTGSSTYVFGSGTKVTV
On to B13, for which the “mRNA display binding score” value is inactive: -0.523 in test [1] and inactive: 1.19 in test [2].

B14: 014-10-1B04 (protein)
chain 1: QLQESGPGLVKPSETLSLTCTVSGGSISGTSYYRVWIRQPPGKGLEWIGSIYYSGSTHYSPSLKSRVTITEDTSKNQFSLKMISVTAADAAVYYCATGPNFEAFDLWGQGTMVTVSS
chain 2: QSALTQPRSVSGSPGQSVTISCTGTSSDVGGYNYVSWYQQHPGKAPKLMIYDVSNRPSGVPDRFSGSKSGNTASLTISGLQAEDEADYYCCSYVGSNTFYVIFGGGTKLTVL
B14: the “mRNA display binding score” value in test [1] is inactive: 0.695; in test [2] it was inactive: 4.61.

B15: 01.r.01 (protein)
chain 1: QVQLQESGPGLVKPSQTLSLTCTVSGGSISSGSYYWSWIRQPAGKGLEWIGSIYTSGSTDYNPSLKNRVSISIDTSKNHFSLVLSSVTAADTAVYFCARDQWEGAFSYGAGFWGQGAVVTVSS
chain 2: DIQMTQSLSSVSASIGDRVTIICRASQGVGNWLVWYQQKPGKARKLLMYAASTLQTDVPSRVSGRGYGTEFTLTISSEQHEDYANYYCQQAHSQPRTFGQGTKVEVK
With B15, the results for the “mRNA display binding score” value in test [1] and in test [2] were inactive: -0.987 and inactive: -0.842, respectively.

B16: W85-2F05 (protein)
chain 1: EVQLVESGGGVVQPGRSLRLSCAASGFSFSSYAMHWVRQAPGKGLEWVAVISYDGSNKYYADSVKGRFTISRDNSKITLFLQMNSLRPEDTAIYYCARTTDYNVYYSGMDVWGQGTTVTVSS
chain 2: QSALTQPASVSGSPGQSITISCTGTSTDIGDYNYVSWYQQHPGRAPKLIIYEVTNRPSGVSNRFSGSKSGYTASLSISGLQAEDEADYYCSSYADGSTPYVFGSATKVT
As to B16, the “mRNA display binding score” value in test [1] is inactive: -0.173; in test [2] it was inactive: 0.392.

B17: SFV018-4D01 (protein)
chain 1: QVQLQESGPGLVKPSETLSLTCSVSGGSISPHYWSWIRQPPGKGLEWIGYIYYAGSTNYSPSLKNRVTISVDTSKNHFSLQLRSVTAADTAVYYCARGGFPAELPPPLDPWGQGNLVTVSS
chain 2: SYELTQPPSVSVSPGQTASITCSGDNLGDKFASWYQQKPGQSPVLVIYQDIRRPSGIPERFSASNSGNTATLTISGTQVMDEADYYCQTWDSSTVLFGGGTKLTVL
As for B17, the “mRNA display binding score” value is inactive: -0.162 in test [1] and inactive: 0.411 in test [2].

B18: W85-2F12 (protein)
chain 1: QVQLQESGPGLVKPSETLSLTCSVSGGSLSSSTYYWGWIRQPPGKGLEWIGSVYYTGSTDYNPSLRSRVSISIDTSKNQFSLKMSSVTAADTAVFYCARYLQWLAPAPLDCWGQGTLVTVSS
chain 2: DIVMTQSPDSLAVSLGERATINCKSSQSVLYSSINKNYLAWYQQKPGQPPKLLIYWASTRESGVPGRFSGSGSGTDFTLTIGSLQAEDVAVYYCQQYYSAPLTFGGGTKVEMK
With B18, the “mRNA display binding score” value in test [1] was inactive: -1.21; in test [2], inactive: 0.5.

B19: 01.ac.01 (protein)
chain 1: QVQVVQSGAEVRKPGASVRLSCKASGYTFDNYYIHWMRQAPGQGLEWMALINPSAGSTIFAQKFHGRVTMTRDTSTSAVHMELSGLRSEDTAVYYCARSQTWGYNIYFDYWGQGTLVTVSS
chain 2: EIVLTQSPVSLSLSPGERATLSCRASQSVSIIYLAWYQQRPGQAPRLLIYGASSRATGIPDRFSGSGCGTDFTLTISRLEHEDSAVYYCQQCGGTYPTFGQGTKVEIK
Consider B19, for which the “mRNA display binding score” value in test [1] was inactive: 0.954; in test [2], inactive: 0.402.
